# Experimental data from PubChem BioAssay AID485273 (Sanford-Burnham Center for Chemical Genomics, 2010).
# Among all 330,000 compounds or so, about 1,500 (0.45%) were called active. Inconclusive means that the source gave no clear call. Such entries were picked first, then a sample of the others. Cut-off read from the data, not from the text of the source: active = inhibition above about 45% (passing the limit was not always enough); inconclusive = no clear call, values can overlap the other calls.
# Biological target: Ubiquitin-conjugating enzyme E2 N (Homo sapiens) (UniProt P61088)
# Assay: UBC13 polyubiquitin chain formation inhibitors, primary screen, biochemical, TR-FRET, uHTS (AID 485273)
# Details: at 20 µM, active compounds read high
# Chain of UniProt P61088 (P61088 whole entry, looked up): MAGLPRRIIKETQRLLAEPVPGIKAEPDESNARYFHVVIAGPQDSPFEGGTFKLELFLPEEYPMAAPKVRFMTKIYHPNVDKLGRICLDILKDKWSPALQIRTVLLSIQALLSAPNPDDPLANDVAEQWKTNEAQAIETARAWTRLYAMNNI
row,SMILES,inhibition
1,CC(C)NC(=S)N=Nc1c(O)[nH]c2ccc([N+](=O)[O-])cc12,inconclusive: 71.7%
2,Cc1ccc(C2CC(=O)c3cnc(N4CCN(c5ccccc5)CC4)nc3C2)cc1 (stereo unspecified),inconclusive: 66%
3,CCN(CC)CCNC(=O)c1ccc(NC(=O)c2cn(-c3ccccc3)nc2-c2cccs2)cc1,active: 103%
4,CCOc1ccc(C(=O)Nc2ccccc2-c2ccccc2)cc1Cl,inconclusive: 64.4%
5,Cc1nc(N)c2c(Cc3cccc4ccccc34)nn(C(C)(C)C)c2n1,active: 74.1%
6,COc1ccc(CC(=O)N(C)CC(=O)Nc2ccccc2Cl)cc1S(=O)(=O)N1CCOCC1,active: 51.9%
7,COC(=O)c1nnn(-c2nonc2N)c1CSc1nc2ccccc2o1,inconclusive: 88.9%
8,NC(=O)C1CC(=O)N(c2ccc(OCc3ccc(Cl)cc3)cc2)C1 (stereo unspecified),inconclusive: 86.6%
9,CC1(C)CC(=O)C2=C(C1)NC1=C(C(=O)c3ccccc31)C2c1ccccc1 (stereo unspecified),inconclusive: 54.2%
10,O=C(CCCn1c(=S)[nH]c2ccsc2c1=O)Nc1ccc2c(c1)OCO2,inconclusive: 60.2%
11,Nc1c(C(=O)N2CCOCC2)sc2nc(N3CCOCC3)c3c(c12)CCCC3,inconclusive: 79.9%
12,c1ccc(-c2nc(NCCCN3CCOCC3)c3ccccc3n2)cc1,inconclusive: 84.9%
13,COc1ccc2cc(C#N)c(SCC(=O)N3CC(=O)Nc4ccccc43)nc2c1,inconclusive: 62.8%
14,COC(=O)c1ccc(COc2ccc3c4c(c(=O)oc3c2)CCC4)o1,inconclusive: 46.4%
15,CCNC(=O)c1cccc(NC(=O)C2CC(=O)N(CCc3ccccc3)C2)c1 (stereo unspecified),inconclusive: 72.7%
16,Cc1cc(C)nc(NS(=O)(=O)c2ccc(NC(=O)CSc3nc(-c4ccccc4)c(C#N)c(=O)[nH]3)cc2)n1,inconclusive: 67.9%
17,N#Cc1c(-c2ccco2)c2c([nH]c1=S)CCCC2,inconclusive: 51.7%
18,CCC1(C)Cc2c(sc3nc(SC)[nH]c(=S)c23)CO1 (stereo unspecified),inconclusive: 70.6%
19,FC(F)(F)c1cnc2c(c1)[nH]c(=S)n2-c1ccc(Cl)cc1,inconclusive: 61.7%
20,COC(=O)C1=C(C)N(Cc2ccccc2)C(=NCc2cc(OC)c(OC)c(OC)c2)N[C@H]1CCc1ccccc1,active: 46.7%
21,CC(C)OC(=O)CC(=O)CSc1nc(-c2ccc(F)cc2)cc(-c2ccccc2)c1C#N,inconclusive: 58%

row,SMILES,inhibition
1,O=C(NC(Cc1c[nH]c2ccccc12)C(=O)Nc1ccc(F)c([N+](=O)[O-])c1)c1cccs1 (stereo unspecified),inactive: -10.2%
2,COc1ccc(-c2csc(Nc3cc(C)ccn3)n2)cc1OC,inactive: 5.5%
3,COc1ccc(OC)c(-c2c3c([nH]c(=S)c2C#N)CCCC3)c1,inconclusive: 69.3%
4,S=C1NC2(CCCCC2)Nc2ccccc21,inconclusive: 64.4%
5,CC(=O)C1=C(C)NC(SCC(=O)c2ccc(Cl)cc2)=C(C#N)C1CC(C)C (stereo unspecified),inconclusive: 80.6%
6,CSc1nc2c(c(-c3ccc(O)cc3)c1C#N)CCC2,inconclusive: 53.1%
7,Cn1c(SCC(=O)NCC2CCCO2)ncc(C(=O)Nc2ccccc2)c1=O (stereo unspecified),active: 68.9%
8,Cc1ccc(NC(=O)c2sc3nc(C)nc(N4CCN(c5ccccn5)CC4)c3c2C)c(C)c1,inconclusive: 55%
9,COC(=O)c1sc2nc(-c3ccccc3)c3c(c2c1N)CCCC3,inconclusive: 48.5%
10,S=c1nc2ccccc2c2nc(-c3ccccc3)[nH]n12,inconclusive: 61.7%
11,Cc1ccc(NC(=O)c2ccccc2NS(=O)(=O)c2ccc(Cl)s2)cc1S(=O)(=O)N1CCOCC1,inconclusive: 88.8%
12,Cc1ccc(S(=O)(=O)c2c(C(=O)c3ccccc3)cnc3cc4c(cc23)OCCO4)cc1,inconclusive: 60.8%
13,CCn1c(O)c(N=NC(=S)NCC2CCCO2)c2ccccc21 (stereo unspecified),active: 76.9%
14,CN(C)CC(O)COc1ccc(C(C)(C)c2ccc(OCC(O)CN(C)C)cc2)cc1 (stereo unspecified),active: 59.2%
15,C#CCOCCOCCOCCNc1nc(N2CCN(C(=O)C([C@@H](C)CC)n3cc(C(N)COC(=O)C(F)(F)F)nn3)CC2)nc(N2CCN(C(=O)[C@H](Cc3cc4ccccc4[nH]3)n3cc(C(N)CO)nn3)CC2)n1 (stereo partly specified),active: 69%
16,C1CC(CN2CCOCC2)CN(Cc2nc(CC3CC3)no2)C1 (stereo unspecified),inactive: -4.9%
17,COc1ccc(NC(=O)CCCC(=O)OCC(F)(F)C(F)F)cc1,inconclusive: 88%
18,COc1ccc(C(=O)c2c(-c3ccc(OC)cc3)oc3ccc(-c4cc(OC)c(OC)c(OC)c4)cc23)cc1,inconclusive: 65%
19,COc1ccc(C(=O)NC(=S)NNC(=O)c2ccc(NC(C)=O)cc2)cc1Br,active: 71.2%
20,Brc1cc2[nH]cnc2c2ccccc12,inconclusive: 100%
21,Cc1onc(-c2ccccc2Cl)c1C(=O)Nc1cccc2nsnc12,inconclusive: 71.5%

row,SMILES,inhibition
1,COc1ccc(S(=O)(=O)N2CCOCC2)cc1C(=O)Nc1nc2ccccc2s1,inconclusive: 71.8%
2,Cc1ccc(C2CC(C(F)F)n3ncc(C(=O)Nc4cnn(Cc5ccccc5C)c4)c3N2)cc1 (stereo unspecified),inactive: 7.5%
3,COc1ccc(-n2c(SCC(=O)N3CCOCC3)nc3ccccc3c2=O)cc1,inconclusive: 71.4%
4,COc1cccc2sc3ccc(C#CC4(N)CCCCC4)cc3c(=O)c12,inconclusive: 84.8%
5,C#CCOCCOCCOCCNc1nc(N2CCN(C(=O)CCCCCCCCCCNC(=O)Cn3cc(CCCCCN)nn3)CC2)nc(N2CCN(C(=O)CCCCCCCCCCNC(=O)[C@H]([C@@H](C)CC)n3cc(CCCCN=C(N)N)nn3)CC2)n1,active: 121%
6,CCc1ccc(CNc2ccc(O)cc2)cc1,inactive: -27.5%
7,CCCCCOc1ccc(C2NC(=O)NC2=O)cc1 (stereo unspecified),inactive: -2.6%
8,O=C(N/N=C/c1c[nH]c2ccccc12)c1ccc2c(c1)OCCO2,inactive: 2.2%
9,Nc1ccc(S(=O)(=O)Nc2ccc(Cl)nn2)cc1,inconclusive: 76.9%
10,O=C(CCCCCN1C(=O)c2ccccc2C1=O)NCCc1nc2ccccc2[nH]1,active: 55.6%
11,COc1ccc(-c2ccc3c(c2)c(-c2cccs2)c(-c2cc(OC)cc(OC)c2)n3C)cc1,inconclusive: 66.9%
12,Cc1nnc(SCC(=O)NCc2ccco2)n1-c1ccc(F)cc1,inconclusive: 75.3%
13,C[C@@]12C(=O)Nc3ccc(Br)cc3C(=O)N1[C@H]1c3ccccc3OC[C@@H]1[C@@H]2c1ccccc1,inconclusive: 58.2%
14,C#CCOCCOCCOCCNc1nc(N2CCN(C(=O)CCCCCCCCCCNC(=O)[C@H]([C@@H](C)CC)n3cc(CCCCN=C(N)N)nn3)CC2)nc(N2CCN(C(=O)CCCCCCCCCCNC(=O)[C@H](CO)n3cc(CCCCCN)nn3)CC2)n1,active: 123%
15,CCOC(=O)N1CCN(C(=O)CCCCCn2c(=S)[nH]c3ccsc3c2=O)CC1,inconclusive: 79.8%
16,COC(=O)C1=CN(C)C=C(C(=O)OC)C1c1ccc(Cl)cc1Cl,inconclusive: 87.8%
17,CCN(Cc1ccccc1)S(=O)(=O)c1ccc(C(=O)N(CCCN(C)C)c2nc3cc4c(cc3s2)OCO4)cc1,active: 64.3%
18,Cc1cc(C)c(C#N)c(SCC(=O)Nc2ccc(S(=O)(=O)Nc3onc(C)c3C)cc2)n1,inactive: -2%
19,CCOP(=O)(OCC)c1nc(-c2cccc3ccccc23)oc1NCCc1ccc(OC)cc1,inconclusive: 94%
20,Cc1ccc(C)c(N2CCN(c3ccc4cc(S(=O)(=O)N5CCCCC5)ccc4n3)CC2)c1,inconclusive: 60.7%
21,O=C1CSC(c2cn(-c3ccccc3)nc2-c2cc3ccccc3oc2=O)N1Cc1ccccc1 (stereo unspecified),inconclusive: 71.8%

row,SMILES,inhibition
1,Cc1nn(C(C)(C)C)c(C)c1/C=N/OC(=O)Nc1ccc(Cl)cc1,inactive: 8.8%
2,CCn1c(=O)c(C(=O)Nc2ccsc2C(=O)OC)c(O)c2ccccc21,inconclusive: 57.8%
3,Cc1ccc(-n2ncc3c(SCc4ccccc4)ncnc32)cc1,inconclusive: 53.3%
4,Cc1cc(SCC(=O)NC2(C#N)CCCCC2)nc2c(C)cccc12,inconclusive: 75.6%
5,COc1cccc2sc(N(CCCN(C)C)C(=O)c3ccc(S(=O)(=O)N4CCc5ccccc5C4)cc3)nc12,active: 63.9%
6,COCCNC(=O)c1c(C)cc(C)cc1C,inconclusive: 75.5%
7,Cc1cc(N2CCN(c3ccccc3)CC2)nc(-c2ccccc2O)n1,inconclusive: 47.1%
8,CCc1c(C)sc(NC(=S)Nc2cccnc2)c1C(=O)OC,inconclusive: 51%
9,CC(=O)OCC(=O)Nc1ccc([N+](=O)[O-])cc1Cl,inactive: 4.6%
10,COc1cccc(COC(=O)c2cc(S(=O)(=O)N3CCCCC3)ccc2N2CCOCC2)c1OC,inconclusive: 54.4%
11,Cn1c(=O)[nH]c(=O)c2c1[nH]c(=S)n2Cc1ccccc1,inconclusive: 46.5%
12,Cc1cc(-n2c(C)cc(C(=O)CN3C(=O)NC4(CCCCC4)C3=O)c2C)no1,inconclusive: 89.6%
13,COC(=O)c1cccc(Nc2cc(C)nc(-c3ccccc3O)n2)c1,inconclusive: 59.8%
14,Cc1cccc(-c2oc3ccc(-c4ccc5c(c4)OCO5)cc3c2C(=O)OCc2ccc(O)cc2)c1,inconclusive: 83.7%
15,COc1ccccc1OCc1ccc(C(=O)NN)o1,inconclusive: 82.9%
16,COc1cc(C(CCN2CCCCC2)c2c(OC)cc(OC)c3c(-c4ccccc4)cc(=O)oc23)cc(OC)c1OC (stereo unspecified),active: 47.9%
17,CCc1nc(SCC(=O)Nc2nc3c(s2)CCCC3)c2ccccc2n1,inconclusive: 52.5%
18,Cc1c(Cc2ccccc2)c(=O)oc2c(C)c(OCC(=O)Nc3ccc(C#N)cc3)ccc12,inconclusive: 49.5%
